According to PubChem BioAssay AID588453 (National Center for Advancing Translational Sciences (NCATS), 2011):
The whole screen tested about 390,000 compounds, of which about 4,000 (1%) were called active. The inconclusive results got no clear call from the source; some entries with a clear call stand among them for comparison. The call rests on the fitted dose curve; in most records, active means well fitted inhibition curve with a large enough effect; inconclusive means small, poorly fitted or top-dose-only effect; inactive means no such curve, though single readings can be large or run the other way. Potencies of inconclusive entries are doubtful fits and often do not repeat.

biological target: Thioredoxin reductase 1, cytoplasmic (Rattus norvegicus) (UniProt O89049); experiment: qHTS Assay for Inhibitors of Mammalian Selenoprotein Thioredoxin Reductase 1 (TrxR1): qHTS; details: recombinant rTrxR1, NADPH fluorescence consumption, selenite substrate; series mostly up to 114 µM; further: nearly all actives have a fitted effect of over 65% in size
Chain of UniProt O89049 (O89049 whole entry, looked up): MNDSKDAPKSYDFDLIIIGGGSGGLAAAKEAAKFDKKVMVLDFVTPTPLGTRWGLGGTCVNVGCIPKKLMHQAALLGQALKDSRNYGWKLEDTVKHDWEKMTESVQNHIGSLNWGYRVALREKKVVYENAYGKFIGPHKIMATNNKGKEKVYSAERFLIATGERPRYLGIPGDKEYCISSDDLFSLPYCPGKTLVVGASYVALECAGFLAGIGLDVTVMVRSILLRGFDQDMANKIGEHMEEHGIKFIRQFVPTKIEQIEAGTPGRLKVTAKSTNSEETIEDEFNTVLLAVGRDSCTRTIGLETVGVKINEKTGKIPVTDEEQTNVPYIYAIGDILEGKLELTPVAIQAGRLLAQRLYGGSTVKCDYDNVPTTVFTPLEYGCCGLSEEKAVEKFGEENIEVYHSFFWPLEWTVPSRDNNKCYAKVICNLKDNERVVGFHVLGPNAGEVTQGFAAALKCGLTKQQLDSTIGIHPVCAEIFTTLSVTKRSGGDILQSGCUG
In short: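 Rat TrxR1 (90 nM in the dispensed reagent) was pre-reduced with 400 uM NADPH for 5 min at room temperature, then incubated with compound for 15 min. After 400 uM selenite was added, NADPH fluorescence (Ex 340/Em 450 nm) was followed for 8 min.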
Potency means the concentration at half of the fitted maximal effect; tags describe the fitted curve by direction and shape.

| SMILES | Potency |
| --- | --- |
| O=C(/C=C/c1ccco1)Nc1ccccc1C(=O)Nc1cccc(C(=O)O)c1 | inconclusive: 44.7 µM [inhibitor, full curve, poor fit] |
| Cc1ccc(C)c(/C=C/C(=O)c2ccccc(=O)c2O)c1 | active: 50.1 µM |
| CCCCCCCNC(=O)C1(CC2CC(c3ccc(Cl)cc3)=NO2)CCNCC1 (configuration not stated) | inconclusive: 15.8 µM [inhibitor, full curve] |
| Cc1c(C(=O)N(C)c2cccc(C(F)(F)F)c2)sc2nc3n(c(=O)c12)CCCCC3 | inconclusive: 50.1 µM [inhibitor, partial curve, poor fit] |
| COc1ccc(-c2nc(CS(=O)CC(=O)NCc3ccc(Cl)cc3)c(C)o2)cc1OC (configuration not stated) | inconclusive: 56.2 µM [inhibitor, partial curve] |
| CNc1ccc(/C=C2\C=Cc3ccccc32)cc1OC | inactive |
| CC(C)n1c(=S)[nH]c2ccccc21 | inconclusive: 4.47 µM [inhibitor, partial curve, poor fit] |
| COC(=O)c1cccc(NC(=S)Nc2ccc(Cl)c(Cl)c2)c1 | inconclusive: 15.8 µM [inhibitor, partial curve, poor fit] |
| O=c1c2ccccc2nc(-c2cccc(Cl)c2)n1O | inactive |
| COc1ccc(C(=O)CCN2CCc3cc(OC)c(OC)cc3C2)cc1 | active: 0.891 µM |
| COc1cc(Cl)c(C)cc1NC(=O)CSc1nnc(-c2cccnc2)n1Cc1ccco1 | inconclusive: 39.8 µM [inhibitor, partial curve] |
| CCOc1ccc(NC(=O)CSc2nnc(-c3ccc(C)cc3)c(-c3ccc(C)cc3)n2)cc1 | inactive |
| COc1cc2cc(CN(Cc3ccc4c(c3)OCO4)C(=O)c3ccco3)c(=O)[nH]c2cc1OC | inconclusive: 15.8 µM [inhibitor, full curve] |
| COc1cc(/C=C2\C(=N)N3N=CSC3=NC2=O)ccc1OS(=O)(=O)c1ccccc1[N+](=O)[O-] | inconclusive: 89.1 µM [inhibitor, single point] |
| O=C(O)c1ccccc1SCC(=O)N1c2ccccc2Sc2ccccc21 | inactive |
| Cc1ccccc1Cn1cnc2c(cnn2C(C)(C)C)c1=O | inconclusive: 6.31 µM [inhibitor, single point] |
| COc1ccc(C2C3=C(CC(c4ccco4)CC3=O)Nc3ccccc3N2C(C)=O)cc1 (configuration not stated) | inactive |
| NC(=O)c1c(NC(=O)CSc2nnc(Cc3ccccc3)n2Cc2ccco2)sc2c1CCC2 | inconclusive: 10 µM [inhibitor, full curve] |
| c1ccc(OCc2nnc3sc(C4COc5ccccc5O4)nn23)cc1 (configuration not stated) | inactive |
| COc1ccc2oc(-c3ccccc3)c(C(N)=O)c2c1 | inactive |
| CCCCC1(C)OC(=O)C(=Cc2ccc(N(CC)CC)cc2)C(=O)O1 (configuration not stated) | inconclusive: 17.8 µM [inhibitor, single point] |
| O=C(CNC(=O)c1cccs1)NCC(=O)OCc1ccc(Cl)cc1Cl | inactive |
| Cc1ccc(S(=O)(=O)N(C)C)cc1NC(=S)Nc1ccc2[nH]c(=O)[nH]c2c1 | inconclusive: 70.8 µM [inhibitor, single point] |
| O=C(CCOc1ccccc1)N1CCN(S(=O)(=O)c2ccccc2F)CC1 | inconclusive: 100 µM [inhibitor, single point] |

| SMILES | Potency |
| --- | --- |
| COc1cc(/C=C2\CCC(C)C3=C(c4cc(OC)c(OC)c(OC)c4)C(C#N)=C(N)OC32)cc(OC)c1OC (configuration not stated) | inconclusive: 70.8 µM [inhibitor, partial curve] |
| CCCCn1nc(NC(=O)c2cccs2)c2cc3ccccc3nc21 | inactive |
| COc1cc(N2C(=O)C=CC2=O)ccc1N1C(=O)C=CC1=O | active: 0.501 µM |
| O=C(O)c1ccc(/C=C2\CCCc3c2nc2ccccc2c3C(=O)O)cc1 | inactive |
| Cc1c(CCC(=O)O)c(=O)oc2cc3occ(C(C)(C)C)c3cc12 | inactive |
| C#CCOCCOCCOCCNc1nc(N2CCN(C(=O)[C@H](CCCCN)n3cc(CN)nn3)CC2)nc(N2CCN(C(=O)[C@H](CCC(=O)O)n3cc([C@@H](N)CCCCN)nn3)CC2)n1 | inconclusive: 50.1 µM [inhibitor, partial curve] |
| CCC1c2ccc(C)n2CCN1C(=O)Nc1cc(Cl)ccc1OC (configuration not stated) | inconclusive: 2.82 µM [inhibitor, partial curve, poor fit] |
| CN1CCCN(CC(O)COCc2cccs2)CC1 (configuration not stated) | inconclusive: 39.8 µM [inhibitor, partial curve] |
| COc1ccc2oc(=N)c(C(=O)Nc3ccccc3)cc2c1 | inconclusive: 39.8 µM [inhibitor, single point] |
| O=C(/C=C/c1ccc(OCc2ccccc2)c(OCc2ccccc2)c1)c1cccnc1 | inactive |
| Cc1ccc(C)n1-c1nnc(N2CCCC(C(=O)NCc3ccc(F)cc3)C2)s1 (configuration not stated) | inconclusive: 25.1 µM [inhibitor, partial curve, poor fit] |
| O=C(O)CCc1ccc(-c2cccs2)n1NC(=O)c1ccc(O)cc1 | inconclusive: 35.5 µM [inhibitor, partial curve, poor fit] |
| O=C1C(=Cc2ccc(Br)o2)C(=O)c2ccccc21 | inconclusive: 31.6 µM [inhibitor, partial curve, poor fit] |
| CCc1cccc2c1NC(=O)C21N2CCCC2C(C(=O)c2ccc3ccccc3c2)C12C(=O)Nc1ccccc12 (configuration not stated) | inconclusive: 79.4 µM [inhibitor, partial curve, poor fit] |
| COc1cc(OC)c(-c2c3cc(O)c(=O)cc-3oc3cc(O)c(O)cc23)cc1OC | inactive |
| CCCCn1c(/C=C/c2ccco2)nc2ccccc21 | active: 50.1 µM |
| CCCCCC(=O)N1CCN(CCN=CC2=C(O)CC(c3ccc(OC)c(OC)c3)CC2=O)CC1 (configuration not stated) | inconclusive: 20 µM [inhibitor, partial curve, poor fit] |
| O=C(O)COc1ccc(/C=C/C(=O)c2ccc3ccccc3c2)cc1 | inactive |
| COc1ccc(-c2nc3c(=O)n(C)c(=O)nc-3n(C)n2)cc1 | inconclusive: 39.8 µM [inhibitor, partial curve, poor fit] |
| CC(=O)Oc1c(Br)cc(N(C(C)=O)S(=O)(=O)c2ccccc2)c2ccccc12 | inactive |
| CCN1CCN(c2cc(C)c3cc(NC(=S)NCCN(C)C)ccc3n2)CC1 | inconclusive: 15.8 µM [inhibitor, partial curve] |
| Cc1cc(O)cc2c1C(=O)/C(=C/c1ccco1)O2 | inconclusive: 89.1 µM [inhibitor, single point] |
| CC(NC(=O)c1ccco1)C(=O)OCc1cccc(Cl)c1 (configuration not stated) | inconclusive: 79.4 µM [inhibitor, single point] |
